The other results are listed elsewhere or left out. The list includes weakly bound sequences.
These sequences were tested against T1, MBP-FoxP3dN (UniProt Q99JB6) (assay: PD-seq (MBP pull-down with sequencing)). Conditions: 20 mM Tris-HCl pH 7.5, 100 mM NaCl, 1.5 mM MgCl2, 0.4 uM protein, 0.1 uM dsDNA library, 30 min, room temperature, amylose pull-down; high values mean tight binding; double strand, one strand shown.
T1 sequence: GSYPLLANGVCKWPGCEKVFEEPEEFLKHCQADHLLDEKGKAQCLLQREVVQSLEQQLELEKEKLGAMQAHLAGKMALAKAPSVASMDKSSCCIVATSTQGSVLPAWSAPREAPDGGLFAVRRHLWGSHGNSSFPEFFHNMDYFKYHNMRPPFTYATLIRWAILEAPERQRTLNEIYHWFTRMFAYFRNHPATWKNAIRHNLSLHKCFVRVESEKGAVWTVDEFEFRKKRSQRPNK

Sequence	binding signal (RPM ratio (pull-down/input))
GATGATTGTTCTCCCAGCTGATGAATTCTGCGGCTCGAGTAAACAAATTTTCCTAATCTTTCTGTTCAAGCGCCATCTAC	1.01
GATGATTGTTCTCCCAGCTGATGAATTTCACGGATCGAGTAAACAAATTTTCCTAATCTTTCTGTTCAAGCGCCATCTAC	0.176
GATGATTGTTCTCCCAGCTGATGAATTTAACCCCTCGAGTAAACAAATTTTCCTAATCTTTCTGTTCAAGCGCCATCTAC	0.318
GATGATTGTTCTCCCAGCTGATGAATTGGAGCAGTCGAGTAAACAAATTTTCCTAATCTTTCTGTTCAAGCGCCATCTAC	0.328
GATGATTGTTCTCCCAGCTGATGAATTGTTCCGTTCGAGTAAACAAATTTTCCTAATCTTTCTGTTCAAGCGCCATCTAC	0.418
GATGATTGTTCTCCCAGCTGATGAATTGTACGGGTCGAGTAAACAAATTTTCCTAATCTTTCTGTTCAAGCGCCATCTAC	0.298
GATGATTGTTCTCCCAGCTGATGAATTTTGTCTTTCGAGTAAACAAATTTTCCTAATCTTTCTGTTCAAGCGCCATCTAC	2.51
GATGATTGTTCTCCCAGCTGATGAATTAAACCGATCGAGTAAACAAATTTTCCTAATCTTTCTGTTCAAGCGCCATCTAC	0.285
GATGATTGTTCTCCCAGCTGATGAATTGCAAGTGTCGAGTAAACAAATTTTCCTAATCTTTCTGTTCAAGCGCCATCTAC	1.16
GATGATTGTTCTCCCAGCTGATGAATTAACAGGATCGAGTAAACAAATTTTCCTAATCTTTCTGTTCAAGCGCCATCTAC	0.226
GATGATTGTTCTCCCAGCTGATGAATTCTGTTCTTCGAGTAAACAAATTTTCCTAATCTTTCTGTTCAAGCGCCATCTAC	0.746
GATGATTGTTCTCCCAGCTGATGAATTCGGCCAGTCGAGTAAACAAATTTTCCTAATCTTTCTGTTCAAGCGCCATCTAC	1.25
GATGATTGTTCTCCCAGCTGATGAATTGTTAACTTCGAGTAAACAAATTTTCCTAATCTTTCTGTTCAAGCGCCATCTAC	0.587
GATGATTGTTCTCCCAGCTGATGAATTACAATCATCGAGTAAACAAATTTTCCTAATCTTTCTGTTCAAGCGCCATCTAC	1.11
GATGATTGTTCTCCCAGCTGATGAATTTGAGGGCTCGAGTAAACAAATTTTCCTAATCTTTCTGTTCAAGCGCCATCTAC	0.419
GATGATTGTTCTCCCAGCTGATGAATTAACCTACTCGAGTAAACAAATTTTCCTAATCTTTCTGTTCAAGCGCCATCTAC	0.289
GATGATTGTTCTCCCAGCTGATGAATTAGTCTAGTCGAGTAAACAAATTTTCCTAATCTTTCTGTTCAAGCGCCATCTAC	0.531
GATGATTGTTCTCCCAGCTGATGAATTTCCAGGTTCGAGTAAACAAATTTTCCTAATCTTTCTGTTCAAGCGCCATCTAC	0.242
GATGATTGTTCTCCCAGCTGATGAATTTTCCTGATCGAGTAAACAAATTTTCCTAATCTTTCTGTTCAAGCGCCATCTAC	0.218
GATGATTGTTCTCCCAGCTGATGAATTACATTCATCGAGTAAACAAATTTTCCTAATCTTTCTGTTCAAGCGCCATCTAC	0.575
GATGATTGTTCTCCCAGCTGATGAATTATGCACTTCGAGTAAACAAATTTTCCTAATCTTTCTGTTCAAGCGCCATCTAC	1.99

Sequence	binding signal (RPM ratio (pull-down/input))
GATGATTGTTCTCCCAGCTGATGAATTCAATTGGTCGAGTAAACAAATTTTCCTAATCTTTCTGTTCAAGCGCCATCTAC	2.04
GATGATTGTTCTCCCAGCTGATGAATTGCACACGTCGAGTAAACAAATTTTCCTAATCTTTCTGTTCAAGCGCCATCTAC	0.848
GATGATTGTTCTCCCAGCTGATGAATTCCACTTATCGAGTAAACAAATTTTCCTAATCTTTCTGTTCAAGCGCCATCTAC	0.7
GATGATTGTTCTCCCAGCTGATGAATTGGTCTGGTCGAGTAAACAAATTTTCCTAATCTTTCTGTTCAAGCGCCATCTAC	0.316
GATGATTGTTCTCCCAGCTGATGAATTAGTTGCATCGAGTAAACAAATTTTCCTAATCTTTCTGTTCAAGCGCCATCTAC	3.86
GATGATTGTTCTCCCAGCTGATGAATTGCGTTCATCGAGTAAACAAATTTTCCTAATCTTTCTGTTCAAGCGCCATCTAC	1.22
GATGATTGTTCTCCCAGCTGATGAATTCCGAAAGTCGAGTAAACAAATTTTCCTAATCTTTCTGTTCAAGCGCCATCTAC	0.229
GATGATTGTTCTCCCAGCTGATGAATTAGGGTCATCGAGTAAACAAATTTTCCTAATCTTTCTGTTCAAGCGCCATCTAC	0.712
GATGATTGTTCTCCCAGCTGATGAATTGTTGTGTTCGAGTAAACAAATTTTCCTAATCTTTCTGTTCAAGCGCCATCTAC	6.09
GATGATTGTTCTCCCAGCTGATGAATTCCATCCTTCGAGTAAACAAATTTTCCTAATCTTTCTGTTCAAGCGCCATCTAC	0.363
GATGATTGTTCTCCCAGCTGATGAATTGCAGAGTTCGAGTAAACAAATTTTCCTAATCTTTCTGTTCAAGCGCCATCTAC	0.781
GATGATTGTTCTCCCAGCTGATGAATTTTGTGTGTCGAGTAAACAAATTTTCCTAATCTTTCTGTTCAAGCGCCATCTAC	5.59
GATGATTGTTCTCCCAGCTGATGAATTCGCGGCCTCGAGTAAACAAATTTTCCTAATCTTTCTGTTCAAGCGCCATCTAC	0.442
GATGATTGTTCTCCCAGCTGATGAATTTTGGATGTCGAGTAAACAAATTTTCCTAATCTTTCTGTTCAAGCGCCATCTAC	0.589
GATGATTGTTCTCCCAGCTGATGAATTAGTCGGATCGAGTAAACAAATTTTCCTAATCTTTCTGTTCAAGCGCCATCTAC	0.297
GATGATTGTTCTCCCAGCTGATGAATTCTACACATCGAGTAAACAAATTTTCCTAATCTTTCTGTTCAAGCGCCATCTAC	0.482
GATGATTGTTCTCCCAGCTGATGAATTGGAAAGATCGAGTAAACAAATTTTCCTAATCTTTCTGTTCAAGCGCCATCTAC	0.164
GATGATTGTTCTCCCAGCTGATGAATTCCCCGAATCGAGTAAACAAATTTTCCTAATCTTTCTGTTCAAGCGCCATCTAC	0.178
GATGATTGTTCTCCCAGCTGATGAATTCTGGACTTCGAGTAAACAAATTTTCCTAATCTTTCTGTTCAAGCGCCATCTAC	0.344
GATGATTGTTCTCCCAGCTGATGAATTTTTCATTTCGAGTAAACAAATTTTCCTAATCTTTCTGTTCAAGCGCCATCTAC	0.293
GATGATTGTTCTCCCAGCTGATGAATTCTGAGCGTCGAGTAAACAAATTTTCCTAATCTTTCTGTTCAAGCGCCATCTAC	0.457

Sequence	binding signal (RPM ratio (pull-down/input))
GATGATTGTTCTCCCAGCTGATGAATTCACAGAATCGAGTAAACAAATTTTCCTAATCTTTCTGTTCAAGCGCCATCTAC	0.192
GATGATTGTTCTCCCAGCTGATGAATTGTGTTAATCGAGTAAACAAATTTTCCTAATCTTTCTGTTCAAGCGCCATCTAC	1.66
GATGATTGTTCTCCCAGCTGATGAATTGTAATCATCGAGTAAACAAATTTTCCTAATCTTTCTGTTCAAGCGCCATCTAC	1.66
GATGATTGTTCTCCCAGCTGATGAATTGGGCGGGTCGAGTAAACAAATTTTCCTAATCTTTCTGTTCAAGCGCCATCTAC	0.476
GATGATTGTTCTCCCAGCTGATGAATTCGATCGGTCGAGTAAACAAATTTTCCTAATCTTTCTGTTCAAGCGCCATCTAC	0.26
GATGATTGTTCTCCCAGCTGATGAATTTGCATGATCGAGTAAACAAATTTTCCTAATCTTTCTGTTCAAGCGCCATCTAC	1.63
GATGATTGTTCTCCCAGCTGATGAATTACCTGGCTCGAGTAAACAAATTTTCCTAATCTTTCTGTTCAAGCGCCATCTAC	0.265
GATGATTGTTCTCCCAGCTGATGAATTTGACAGGTCGAGTAAACAAATTTTCCTAATCTTTCTGTTCAAGCGCCATCTAC	0.38
GATGATTGTTCTCCCAGCTGATGAATTACAGACTTCGAGTAAACAAATTTTCCTAATCTTTCTGTTCAAGCGCCATCTAC	0.496
GATGATTGTTCTCCCAGCTGATGAATTAAGCCGGTCGAGTAAACAAATTTTCCTAATCTTTCTGTTCAAGCGCCATCTAC	0.368
GATGATTGTTCTCCCAGCTGATGAATTAGCCGCCTCGAGTAAACAAATTTTCCTAATCTTTCTGTTCAAGCGCCATCTAC	0.547
GATGATTGTTCTCCCAGCTGATGAATTATTACATTCGAGTAAACAAATTTTCCTAATCTTTCTGTTCAAGCGCCATCTAC	0.591
GATGATTGTTCTCCCAGCTGATGAATTTCACGAGTCGAGTAAACAAATTTTCCTAATCTTTCTGTTCAAGCGCCATCTAC	0.245
GATGATTGTTCTCCCAGCTGATGAATTGTTTTAGTCGAGTAAACAAATTTTCCTAATCTTTCTGTTCAAGCGCCATCTAC	1.21
GATGATTGTTCTCCCAGCTGATGAATTCCTGGTCTCGAGTAAACAAATTTTCCTAATCTTTCTGTTCAAGCGCCATCTAC	0.287
GATGATTGTTCTCCCAGCTGATGAATTACCCGAGTCGAGTAAACAAATTTTCCTAATCTTTCTGTTCAAGCGCCATCTAC	0.183
GATGATTGTTCTCCCAGCTGATGAATTTAACCGATCGAGTAAACAAATTTTCCTAATCTTTCTGTTCAAGCGCCATCTAC	0.215
GATGATTGTTCTCCCAGCTGATGAATTGGGTAGGTCGAGTAAACAAATTTTCCTAATCTTTCTGTTCAAGCGCCATCTAC	0.375
GATGATTGTTCTCCCAGCTGATGAATTGAACGGCTCGAGTAAACAAATTTTCCTAATCTTTCTGTTCAAGCGCCATCTAC	0.211
GATGATTGTTCTCCCAGCTGATGAATTACTTTAGTCGAGTAAACAAATTTTCCTAATCTTTCTGTTCAAGCGCCATCTAC	0.408
GATGATTGTTCTCCCAGCTGATGAATTCTCACCTTCGAGTAAACAAATTTTCCTAATCTTTCTGTTCAAGCGCCATCTAC	0.268
